# Measurements reported in article PMC12136788.
# The other results are listed elsewhere or left out.
# B1: 32234225_32234345_1156_CDS_ENSMUSG00000040451_ENSMUST00000099514|mouse|control|control (ssRNA)
# RNA: GGGAGUUCUACAGUCCGACGAUCCAGGAAAGUCUUGCCCCACUCCAUGGGAUACUGGGAGCGCUCCGGUUCUGGCAUGGGGAUCUUGAUCAUCUCUUUCCUAAACCCAUUUGGCAUUCCGUUGGGUUUAGUCUUGAUGCUGAACAACAGAGGAUUGAGCAUCA
# B2: chr5:38528984:38528985:-_ENSMUSG00000029126_ENSMUST00000031009|mus_hu|FALSE|FALSE (ssRNA)
# RNA: GGGAGUUCUACAGUCCGACGAUCCAAGAUUCAAACUGGAACAAUUUUCUUACAAAGAUUGUGAGUUGAAAUUUGUCAUUUUGUUUGCACGGUGCCACACCAGUCCCCCACCCCCACCCCACAGCCUUUCCUGCCUGUUUCCCACAACAGAGGAUUGAGCAUCA
# B3: 171509719_171509839_3416_CDS_ENSG00000117523_ENST00000367742|human|control|control (ssRNA)
# RNA: GGGAGUUCUACAGUCCGACGAUCAACUGACUGUGGCUGAAUUGGUGCUGGUGGCUGAGGUGGUGGUGGGGGAGGAGGAAGAUCCUUCUUUUCCGUCUUUUCAGGCUUUACAACUACUUUUUCAGUGACCUUUUCGGCCUUUUCCAACAGAGGAUUGAGCAUCA
# B4: chr18:56819859:56819860:+_ENSG00000166562_ENST00000588875|hu_mus|hu_hu_hu_mus_True|18_68 (ssRNA)
# RNA: GGGAGUUCUACAGUCCGACGAUCAACCUUGAUUACUCUGUGAACUAUCGGAAUGUCUCUUCCUUCAACUUUAAAAACAACUAUUUCACCAGCUCUGAUGGGGUCCUCCCGGAAAUUUGUGAGGAACAGCAGAUCUCCUCUGUGCAACAGAGGAUUGAGCAUCA
# B5: 27445870_27446515_996_CDS_ENSG00000084774_ENST00000264705|human|control|control (ssRNA)
# RNA: GGGAGUUCUACAGUCCGACGAUCAGCAAACCCAUGGUUCUGGGAUGUCAGAAAGCAGCGCCCAGAGCCCACCAACAAGCAGGGCUGGUUAUGGCCUCGGUUCCCAUAUCUCAUCUUGUAAGUCUUGGCCCCAAUGGCUAAGGCCAACAGAGGAUUGAGCAUCA
# B6: chr8:104447970:104447971:+_ENSG00000164934_ENST00000297579|hu_hu|hu_hu_hu_mus_False|18_88 (ssRNA)
# RNA: GGGAGUUCUACAGUCCGACGAUCAUACACUUCCCUGCUUCGGCUCUUGUCUACAGGAAAGAUUCUAAUAGACUUAUCAAAGCUGGCAGACACAAAUUCCUUCCCAGUGGGAGAGUAAUCCACAUCAAGUACUGCAGACACGUGCAACAGAGGAUUGAGCAUCA
# Target: T1, UNK ZnF1-3 (human, UniProt Q9C0B0 31-174)
# T1 sequence: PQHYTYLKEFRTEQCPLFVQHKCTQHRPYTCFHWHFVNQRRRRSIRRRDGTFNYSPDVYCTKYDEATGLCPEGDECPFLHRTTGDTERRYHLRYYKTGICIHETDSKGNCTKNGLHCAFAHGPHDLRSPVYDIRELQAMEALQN
# Test: nsRBNS (natural sequence RNA bind-n-seq); RBNS binding buffer (assumed for nsRBNS): 25 mM Tris pH 7.5, 150 mM KCl, 3 mM MgCl2, 0.01% Triton X-100, 500 ug/ml BSA, 20 U/ml SUPERase-In, 4 C; UNK is unkempt and MSI1 is Musashi-1; names of the RNAs are library labels; protein concentration not given here; high values mean tight binding
row,Binder,binding signal [enrichment R]
1,B1,0.407
2,B2,0.872
3,B3,0.514
4,B4,0.893
5,B5,1.09
6,B6,0.83
